PubChem BioAssay AID1030 (National Center for Advancing Translational Sciences (NCATS), 2008)
About 16,000 (7.3%) of roughly 220,000 compounds were called active. Inconclusive means that the source gave no clear call. Such entries were picked first, then a sample of the others. Calls come from the whole dose curve; as a rule, active = well fitted inhibition curve with a large enough effect (not every such curve was filed as active); inconclusive = small, poorly fitted or top-dose-only effect, or another doubt; inactive = no such curve, though single readings can be large or run the other way. A potency beside an inconclusive call is a rough fit, not a confirmed value.

Each molecule was assayed against Aldehyde dehydrogenase 1A1 (Homo sapiens) (UniProt P00352) (assay: qHTS Assay for Inhibitors of Aldehyde Dehydrogenase 1 (ALDH1A1)). Conditions: Purified ALDH1A1, NADH fluorescence, propionaldehyde substrate; series mostly up to 75.3 µM.
Potency is the fitted concentration of half-maximal effect; tags give direction and shape of the fitted curve.

UniProt P00352, sequence (P00352 whole entry, looked up): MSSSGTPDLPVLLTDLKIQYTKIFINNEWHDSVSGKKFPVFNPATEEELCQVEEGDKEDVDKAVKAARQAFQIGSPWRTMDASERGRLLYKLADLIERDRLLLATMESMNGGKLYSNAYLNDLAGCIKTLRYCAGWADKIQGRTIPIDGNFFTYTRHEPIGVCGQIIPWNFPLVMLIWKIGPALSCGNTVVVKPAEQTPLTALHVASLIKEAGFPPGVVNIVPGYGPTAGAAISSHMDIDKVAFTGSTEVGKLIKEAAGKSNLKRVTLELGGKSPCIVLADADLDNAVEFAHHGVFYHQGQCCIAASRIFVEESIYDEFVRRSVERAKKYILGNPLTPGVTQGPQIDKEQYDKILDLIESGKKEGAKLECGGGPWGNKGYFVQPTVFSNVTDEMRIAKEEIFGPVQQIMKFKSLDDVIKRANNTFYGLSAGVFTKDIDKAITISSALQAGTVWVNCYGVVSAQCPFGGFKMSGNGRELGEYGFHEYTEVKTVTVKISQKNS

Potency, inconclusive:
Clc1cccc(C2CCN(Cc3nc(COc4ccccc4)no3)C2)c1 (configuration not stated) 25.1 µM [inhibitor, single point]
CC1(C)NC(=O)N(CC(O)Cn2c3ccccc3c3ccccc32)C1=O (configuration not stated) 22.4 µM [inhibitor, single point]
O=C(c1cnn2c(C(F)F)cc(C3CC3)nc12)N1CCc2ccccc2C1 12.6 µM [inhibitor, partial curve]
Cc1cc(C(=O)CSc2nncs2)c(C)n1-c1ccc2c(c1)OCO2 31.6 µM [inhibitor, single point]
O=C(CSc1ccc2nnc(-c3cccnc3)n2n1)NCC1CCCO1 (configuration not stated) 31.6 µM [inhibitor, partial curve]
NC(=O)C1(N2CCCCC2)CCN(C(=O)CSc2nc3ccccc3[nH]2)CC1 39.8 µM [inhibitor, single point]
Cc1ccc(C2=N/C(=C\c3cccs3)C(=O)N2Nc2ccccc2)cc1 31.6 µM [inhibitor, partial curve]
Cc1ccc(C)c(N=Cc2cc3c(cc2[N+](=O)[O-])OCO3)c1 11.2 µM [inhibitor, partial curve]
CCOc1cc(N2CCOCC2)c(OCC)cc1NC(=O)CSc1ncccn1 22.4 µM [inhibitor, single point]
CC(c1ccccc1)N1C(=O)C2C3CCC(C3)C2C1=O (configuration not stated) 35.5 µM [inhibitor, single point]
C=CCOC(=O)C1=C(C)NC(SC)=C(C#N)C1c1cccs1 (configuration not stated) 39.8 µM [inhibitor, single point]
CC(C)Oc1ccc(C(=O)N/N=C/c2ccc(-c3ccc(S(=O)(=O)Nc4ncccn4)cc3)o2)cc1 28.2 µM [inhibitor, partial curve]
O=C(CC1(O)C(=O)N(CN2CCOCC2)c2ccccc21)c1ccccc1 (configuration not stated) 39.8 µM [inhibitor, single point]
CN1CCN(/N=C/c2nc(-c3ccccc3)n3ccccc23)CC1 39.8 µM [inhibitor, single point]
COc1ccccc1C(=O)Nc1ccc(S(=O)(=O)Nc2cc(C)nc(C)n2)cc1 39.8 µM [inhibitor, single point]
CCCN1C(=O)/C(=C/c2ccc(C)s2)SC1=Nc1ccc(OC)cc1 17.8 µM [inhibitor, partial curve]
CN(C)c1ccc(NC(=O)c2ccc(Cn3cc([N+](=O)[O-])cn3)cc2)cc1 39.8 µM [inhibitor, single point]
CCOc1ccc(N2C(=O)C3ON(c4ccccc4)C(c4cccs4)C3C2=O)cc1 (configuration not stated) 39.8 µM [inhibitor, single point]
COC(=O)C1CCCN1C(=O)COc1ccc(Cl)cc1Br (configuration not stated) 25.1 µM [inhibitor, single point]
CC(=O)C1=C(O)C(=O)N(Cc2ccco2)C1c1ccc2c(c1)OCO2 (configuration not stated) 39.8 µM [inhibitor, single point]
Cc1cccc(NC(=S)NCc2ccc(F)cc2)c1 2.82 µM [inhibitor, full curve]
CN(C)C(CNC(=O)c1cccnc1Sc1ccccc1)c1ccco1 (configuration not stated) 39.8 µM [inhibitor, single point]
CCN(CC)S(=O)(=O)c1ccc(C(=O)Nc2nnc(C(C)C)s2)cc1 31.6 µM [inhibitor, single point]
CCOC(=O)c1c(NC(=O)COC(=O)c2c(C)noc2C)sc2c1CCC2 22.4 µM [inhibitor, single point]
COc1ccc(/C=C/C(=O)c2ccc(C)s2)cc1 35.5 µM [inhibitor, single point]
CCCSCCCNC(=O)c1cc2c(s1)CS(=O)(=O)C2 39.8 µM [inhibitor, single point]
Cc1ccc(NC(=O)Cn2c(CCC(=O)O)ccc2-c2cccs2)cc1 39.8 µM [inhibitor, single point]
O=C1c2ccccc2C(=O)C1c1ccccn1 39.8 µM [inhibitor, single point]
Cc1ccc(S(=O)(=O)N(C)/N=C/C=C/c2ccccc2)cc1 39.8 µM [inhibitor, single point]
Cc1nc(NCc2ccco2)c2c(C)c(C)sc2n1 39.8 µM [inhibitor, single point]

Potency, active:
Cc1ccc(N2C(=O)C3C4C=CC(CNC(=S)Nc5cccc(Cl)c5)(O4)C3C2=O)cc1 (configuration not stated) 1.58 µM
COc1ccc(CCNC(=O)CN2CCC(C)CC2)cc1OC 11.2 µM
Cc1nn(-c2ccccc2)c(Cl)c1C(=O)N1CCN(c2ncnc3c2cnn3-c2ccccc2)CC1 14.1 µM
O=C(CSc1nnnn1C1CCCCC1)NNC(=O)c1ccco1 4.74 µM
O=C(O)CCc1ccc(-c2cccs2)n1-c1ccc(C(=O)O)cc1 12.6 µM

Potency, inactive:
Cc1ccc(CNC(=O)COC(=O)c2cnc(C)cn2)cc1
CCN1CCN(C(=O)C(=O)c2c(C)[nH]c3ccccc23)CC1
CCC(C)(C)NC(=O)c1cc(C(=O)OC)cc([N+](=O)[O-])c1
COc1ccc(S(=O)(=O)NCc2ccncc2)cc1OC
COc1cccc(N2C(=O)C3CCCN3C2c2ccc(F)cc2)c1 (configuration not stated)
CN1CCN(S(=O)(=O)c2ccc(Br)s2)CC1
CCc1cc(C(=O)COc2ccc(F)cc2)c(O)cc1O
Cc1cc(C)n(C(=O)c2cc(F)c(F)cc2C)n1
Cc1ccc(-c2cc(C(=O)Nc3ccc4c(c3)OCCO4)c3ccccc3n2)cc1
Cc1n[nH]c(=S)n1/N=C/c1ccc(OCc2ccc(Cl)cc2)cc1
Cc1ccc(-c2nc(C)c(C(=O)O)s2)cc1
Cc1cc(C)nc(NC(=O)c2cccc(Cl)c2)n1
